# From PubChem BioAssay AID686971 (National Center for Advancing Translational Sciences (NCATS), 2013)
# In all, about 360,000 compounds went through this assay and about 7,500 (2.1%) were called active. About 8% were inconclusive and are not listed. Calls follow the shape of the dose curve; as a rule, active = well fitted cell-killing curve with a large enough effect; inconclusive = small, poorly fitted or top-dose-only effect, or effect the other way, or another doubt; inactive = no such curve, though single readings can be large or run the other way. This is a selection; strong and weak results do not stand in their true shares.
# Test: qHTS for induction of synthetic lethality in tumor cells producing 2HG: qHTS for the HT-1080-IDH1KD cell line;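 as to activity, negative = toxicity: 0% = DMSO wells and -100% = cell-free medium wells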
# Conditions: HT-1080 IDH1 knockdown viability, ATP luminescence, 48 h; series mostly up to 46.1 µM; activity, negative = toxicity: at the top concentration
# In short: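 Viability of IDH1-knockdown HT-1080 fibrosarcoma cells was assessed by CellTiter-Glo after 48 h at 37 °C with titrated compound; concentration-effect curves were classified by fit quality and response size.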
# Potency is read from the fitted curve at half-maximal effect.
SMILES,"activity, negative = toxicity",Potency
COc1ccc([C@@]2(C(C)C)ON(c3ccccc3C(F)(F)F)C2=O)cc1,inactive: -9.8%,–
O=C(Nc1ccccc1)/C(=C/c1ccccc1)NC(=O)c1ccco1,inactive: 2.01%,–
Cc1cccc(N2CCN(C(=O)c3ccc4[nH]c(C)c(C)c4c3)CC2)c1C,–,active: 3.66 µM
COc1ccc(-c2nc3cc(C)ccn3c2NC2CCCCC2)cc1SC1CCCCC1,inactive: -81.4%,–
C=CCc1ccccc1OCC(O)CN1CCN(c2ccccc2OC)CC1 (configuration not stated),inactive: -25.6%,–
[O-]/[N+](=C\c1ccc(F)cc1)c1ccccc1,inactive: 7.2%,–
COc1ccc([C@H]2C[C@@H](O)[C@H](n3cc(COC(=O)c4ccccc4)nn3)CN2CC2CCCCC2)cc1,inactive: -26.5%,–
CCOc1cc(N2CCOCC2)c(OCC)cc1NC(=O)COC(=O)[C@@H]1CCCN1S(=O)(=O)c1ccccc1F,inactive: -27.8%,–
O=C(c1ccccc1)c1ccc2nc(-c3ccco3)c(-c3ccco3)nc2c1,–,active: 18.4 µM
O=C(NCCc1ccccc1)Nc1nnc([C@H]2C[C@H](O)[C@@H](CO)O2)s1,inactive: 4.24%,–
O=C1NC[C@H](CCCCN2C[C@H](Cc3ccc(O)cc3)N(CCC3CCCCC3)C(=O)C2=O)N(CC2CCCCC2)C1=O,inactive: 5.52%,–
CC(C)C[C@H]1CN([C@@H](Cc2ccccc2)CN2CCC[C@@H]2CN2C(=O)C(=O)NC[C@@H]2Cc2ccc(O)cc2)C(=O)C(=O)N1CCc1ccccc1,inactive: 3.99%,–
COc1ccc(-c2cc(=O)c3c(O)cc(OC4OC(COC5OC(C)C(O)C(O)C5O)C(O)C(O)C4O)cc3o2)cc1O (configuration not stated),inactive: -2.21%,–
O=C(NCc1ccccc1)C1=C[C@H](c2ccc(C(F)(F)F)cc2)C[C@H](OCc2ccc(CO)cc2)O1,inactive: -9.82%,–
CC(=C/c1ccco1)/C=N/N1CCN(c2ccccc2)CC1,inactive: 0.439%,–
Cc1ccc(OCC(=O)Nc2ccc3c(c2)nc(CCN2CCN(c4ccccn4)CC2)n3C)cc1,–,active: 20.6 µM

SMILES,"activity, negative = toxicity",Potency
N#C/C(=C/c1cccs1)c1nc2ccccc2[nH]1,inactive: -26.1%,–
O=C(NCc1ccncc1)[C@@H]1CCCN1C(=O)[C@H]1CCCN1C(=O)c1ccccc1,inactive: -0.29%,–
CCN(CC)CCOC(=O)c1ccc(NC(=O)CCCN2C(=O)/C(=C/c3cccs3)SC2=S)cc1,inactive: -28.7%,–
COc1ccc(/C=C2/SC(c3ccc(C)cc3)=NC2=O)cc1OC,inactive: -7.1%,–
O=C(O)c1ccc(NN=CC2=C(N3CCOCC3)/C(=C/c3ccccc3)CC2)cc1,inactive: -15.1%,–
Cc1ccc(-c2csc(NC(=O)CSc3nc4ccccc4c(=O)n3CCCN(C)C)n2)cc1,–,active: 23.1 µM
C[C@H](CCC(=O)O)[C@H]1CC[C@H]2[C@@H]3CC[C@@H]4C[C@H](O)CC[C@]4(C)[C@H]3C[C@H](O)[C@]12C,–,inactive
NC(=O)C1=C[C@H](c2csc3ccccc23)C[C@H](OCc2ccc(CO)cc2)O1,inactive: -1.44%,–
Cc1ccc(NC(=S)N/C(=N/S(=O)(=O)c2ccccc2)c2ccccc2)cc1,inactive: 0.458%,–
CC1(C)OC(c2ccccc2)=C/C(=C/C=N/NC(=O)c2ccncc2)O1,inactive: -21.4%,–
O=C(O)C12C[C@H]3C[C@@H](C1)CC(n1ncc(N4CCN(c5ccccc5)CC4)c(Cl)c1=O)(C3)C2,inactive: 19.4%,–
CC(C)C[C@H]1CN(CCCC[C@H]2CNC(=O)C(=O)N2CCc2ccccc2)C(=O)C(=O)N1CCc1ccc(O)cc1,inactive: 2.43%,–
O=C(/C=C/c1ccc(Br)cc1)c1ccc(NC(=O)c2ccco2)cc1,inactive: 12.1%,–
Cc1cccc(CNC(=O)Nc2nnc([C@@H]3C[C@H](O)[C@@H](CO)O3)s2)c1,inactive: -1.65%,–
CN1C(c2ccc(F)cc2)=CS/C1=C(/C#N)c1nnc2n1-c1ccccc1SC2,inactive: -6.32%,–
CCn1c(SCC(=O)N/N=C/C=C/c2ccccc2[N+](=O)[O-])nnc1-c1ccccc1,inactive: -4.1%,–
